Results from PMC6794377.
These are yes or no findings as the source states them, for the method shown. For some assays here: In cells and extracts the contact can be indirect. Some binding calls cover weakened binding; strength is not graded here. Tags and fused reporters may be left off the sequences shown.

T1: C-terminal FLAG-tagged human threonyl-tRNA synthetase-like protein (hThrRS-L-FLAG) (human) (UniProt A2RTX5)
T1 sequence: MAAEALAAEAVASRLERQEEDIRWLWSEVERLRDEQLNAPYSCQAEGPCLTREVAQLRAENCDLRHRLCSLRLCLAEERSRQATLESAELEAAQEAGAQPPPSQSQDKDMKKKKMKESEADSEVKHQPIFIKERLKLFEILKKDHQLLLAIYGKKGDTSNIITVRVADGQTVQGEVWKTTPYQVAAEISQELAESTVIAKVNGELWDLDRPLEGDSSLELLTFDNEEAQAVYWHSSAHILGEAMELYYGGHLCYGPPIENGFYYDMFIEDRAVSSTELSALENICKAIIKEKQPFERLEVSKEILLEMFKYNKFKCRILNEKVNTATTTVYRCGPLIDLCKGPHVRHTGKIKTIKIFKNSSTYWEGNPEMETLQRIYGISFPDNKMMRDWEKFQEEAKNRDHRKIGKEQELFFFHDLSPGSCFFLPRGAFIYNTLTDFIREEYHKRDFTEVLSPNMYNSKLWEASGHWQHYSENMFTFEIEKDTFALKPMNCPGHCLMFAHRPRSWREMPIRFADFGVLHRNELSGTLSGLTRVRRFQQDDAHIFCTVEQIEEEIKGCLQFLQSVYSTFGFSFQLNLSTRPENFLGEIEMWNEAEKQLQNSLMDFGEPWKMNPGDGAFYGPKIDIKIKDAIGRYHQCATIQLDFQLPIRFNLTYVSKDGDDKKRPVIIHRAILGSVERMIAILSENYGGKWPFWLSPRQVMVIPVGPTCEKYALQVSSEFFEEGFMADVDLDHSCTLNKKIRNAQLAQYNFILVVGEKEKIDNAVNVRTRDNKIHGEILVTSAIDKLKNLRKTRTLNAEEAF

T2: TLN161-Hb/A, Gal4 DNA binding domain fusion (human) (UniProt A2RTX5)
T2 sequence: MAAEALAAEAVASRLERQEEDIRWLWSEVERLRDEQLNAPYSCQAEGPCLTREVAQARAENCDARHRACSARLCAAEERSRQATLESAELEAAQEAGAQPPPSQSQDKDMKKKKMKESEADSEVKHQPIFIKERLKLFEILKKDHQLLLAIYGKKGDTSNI

T3: TLN161(75-161), C-terminal part of TLN161, Gal4 DNA binding domain fusion (human) (UniProt A2RTX5)
T3 sequence: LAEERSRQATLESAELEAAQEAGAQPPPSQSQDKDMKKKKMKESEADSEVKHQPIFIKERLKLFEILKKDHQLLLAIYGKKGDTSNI

T4: TLN161-Ha/Hb/A, Gal4 DNA binding domain fusion (human) (UniProt A2RTX5)
T4 sequence: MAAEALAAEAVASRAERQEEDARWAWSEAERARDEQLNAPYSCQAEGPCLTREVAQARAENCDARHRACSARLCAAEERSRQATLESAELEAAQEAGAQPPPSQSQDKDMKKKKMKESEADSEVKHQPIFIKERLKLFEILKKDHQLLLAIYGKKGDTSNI

T5: TLN161-Ha/A, Gal4 DNA binding domain fusion (human) (UniProt A2RTX5)
T5 sequence: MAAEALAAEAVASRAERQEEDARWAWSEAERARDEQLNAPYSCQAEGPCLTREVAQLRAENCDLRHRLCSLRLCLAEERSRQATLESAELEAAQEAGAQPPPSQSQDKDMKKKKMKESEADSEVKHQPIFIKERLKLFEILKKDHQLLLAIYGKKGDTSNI

T6: TLN161, N-terminal appended domain of hThrRS-L (Met1-Ile161), Gal4 DNA binding domain fusion (human) (UniProt A2RTX5)
T6 sequence: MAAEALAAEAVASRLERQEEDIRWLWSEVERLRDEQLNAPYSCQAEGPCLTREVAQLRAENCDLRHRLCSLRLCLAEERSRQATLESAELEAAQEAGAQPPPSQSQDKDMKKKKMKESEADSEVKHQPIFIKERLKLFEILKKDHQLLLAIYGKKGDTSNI

T7: TLN161(1-74), N-terminal part of TLN161, Gal4 DNA binding domain fusion (human) (UniProt A2RTX5)
T7 sequence: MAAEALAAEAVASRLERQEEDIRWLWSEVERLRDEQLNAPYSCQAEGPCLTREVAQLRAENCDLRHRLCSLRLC

T8: TLN161-M1/A, Gal4 DNA binding domain fusion (human) (UniProt A2RTX5)
T8 sequence: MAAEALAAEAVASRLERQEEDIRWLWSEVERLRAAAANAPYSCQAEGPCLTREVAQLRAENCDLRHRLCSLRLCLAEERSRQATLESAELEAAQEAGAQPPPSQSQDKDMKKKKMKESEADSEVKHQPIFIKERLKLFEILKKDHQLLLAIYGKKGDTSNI

T9: TLN161-M2/A, Gal4 DNA binding domain fusion (human) (UniProt A2RTX5)
T9 sequence: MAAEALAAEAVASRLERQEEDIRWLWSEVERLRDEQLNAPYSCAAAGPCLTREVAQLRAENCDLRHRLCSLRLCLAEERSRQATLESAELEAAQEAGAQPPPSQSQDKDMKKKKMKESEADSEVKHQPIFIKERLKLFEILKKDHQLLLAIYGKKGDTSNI

T10: TLN161-M3/A, Gal4 DNA binding domain fusion (human) (UniProt A2RTX5)
T10 sequence: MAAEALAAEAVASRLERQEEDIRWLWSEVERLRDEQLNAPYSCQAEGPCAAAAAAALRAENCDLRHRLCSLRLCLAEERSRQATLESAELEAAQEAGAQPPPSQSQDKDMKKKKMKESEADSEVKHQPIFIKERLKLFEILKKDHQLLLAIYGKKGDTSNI


What was measured:
[1] = target: T1, C-terminal FLAG-tagged human threonyl-tRNA synthetase-like protein (hThrRS-L-FLAG) (human); test: co-IP; both proteins overexpressed with different tags in HEK293T; lysis buffer 50 mM Tris-HCl pH 7.5, 150 mM NaCl, 5 mM EDTA, 1% Triton X-100; antibody overnight, Dynabeads protein G, 4°C; western blotting
[2] = target: N-terminal Myc-tagged human ThrRS (Myc-hThrRS) (human) (UniProt P26639); test: as above
[3] = target: T2, TLN161-Hb/A, Gal4 DNA binding domain fusion (human); test: two-hybrid; pairwise: pGADT7 construct and pGBKT7 construct together in Y2HGold; growth on QDO/X/A (SD/QDO/X) plates
[4] = target: T3, TLN161(75-161), C-terminal part of TLN161, Gal4 DNA binding domain fusion (human); test: as above
[5] = target: T4, TLN161-Ha/Hb/A, Gal4 DNA binding domain fusion (human); test: as above
[6] = target: T5, TLN161-Ha/A, Gal4 DNA binding domain fusion (human); test: as above
[7] = target: T6, TLN161, N-terminal appended domain of hThrRS-L (Met1-Ile161), Gal4 DNA binding domain fusion (human); test: as above
[8] = target: T7, TLN161(1-74), N-terminal part of TLN161, Gal4 DNA binding domain fusion (human); test: as above
[9] = target: T8, TLN161-M1/A, Gal4 DNA binding domain fusion (human); test: two-hybrid; TLN161 linker mutants with p43 and ArgRS; data not shown
[10] = target: T6, TLN161, N-terminal appended domain of hThrRS-L (Met1-Ile161), Gal4 DNA binding domain fusion (human); test: as above
[11] = target: T9, TLN161-M2/A, Gal4 DNA binding domain fusion (human); test: as above
[12] = target: T10, TLN161-M3/A, Gal4 DNA binding domain fusion (human); test: as above
[13] = target: T6, TLN161, N-terminal appended domain of hThrRS-L (Met1-Ile161), Gal4 DNA binding domain fusion (human); test: two-hybrid; screen: Gal4 DNA binding domain-TLN161 in Y2HGold mated with Y187 carrying a normalized Mate & Plate human cDNA library; QDO/X/A plates

binding [1] | binding [2] | binding [3] | binding [4] | binding [5] | binding [6] | binding [7] | binding [8] | binding [9] | binding [10] | binding [11] | binding [12] | binding [13] | Binder
binds | binds |  |  |  |  |  |  |  |  |  |  |  | N-terminal Myc-tagged human ThrRS (Myc-hThrRS) (enzyme, UniProt P26639 1-723) MFEEKASSPSGKMGGEEKPIGAGEEKQKEGGKKKNKEGSGDGGRAELNPWPEYIYTRLEMYNILKAEHDSILAEKAEKDSKPIKVTLPDGKQVDAESWKTTPYQIACGISQGLADNTVIAKVNNVVWDLDRPLEEDCTLELLKFEDEEAQAVYWHSSAHIMGEAMERVYGGCLCYGPPIENGFYYDMYLEEGGVSSNDFSSLEALCKKIIKEKQAFERLEVKKETLLAMFKYNKFKCRILNEKVNTPTTTVYRCGPLIDLCRGPHVRHTGKIKALKIHKNSSTYWEGKADMETLQRIYGISFPDPKMLKEWEKFQEEAKNRDHRKIGRDQELYFFHELSPGSCFFLPKGAYIYNALIEFIRSEYRKRGFQEVVTPNIFNSRLWMTSGHWQHYSENMFSFEVEKELFALKPMNCPGHCLMFDHRPRSWRELPLRLADFGVLHRNELSGALTGLTRVRRFQQDDAHIFCAMEQIEDEIKGCLDFLRTVYSVFGFSFKLNLSTRPEKFLGDIEVWDQAEKQLENSLNEFGEKWELNSGDGAFYGPKIDIQIKDAIGRYHQCATIQLDFQLPIRFNLTYVSHDGDDKKRPVIVHRAILGSVERMIAILTENYGGKWPFWLSPRQVMVVPVGPTCDEYAQKVRQQFHDAKFMADIDLDPGCTLNKKIRNAQLAQYNFILVVGEKEKISGTVNIRTRDNKVHGERTISETIERLQQLKEFRSKQAEEEF
 |  | no binding | no binding | no binding | no binding | binds | binds | binds | binds | binds | binds |  | N-terminal leucine-zipper domain of ArgRS (Met1-Asn72), Gal4 activation domain fusion (domain or fragment, UniProt P54136 1-72) MDVLVSECSARLLQQEEEIKSLTAEIDRLKNCGCLGASPNLEQLQEENLKLKYRLNILRKSLQAERNKPTKN
 |  | binds | no binding | no binding | binds | binds | binds | binds | binds | binds | binds | binds | p43 (AIMP1), 336-aa isoform, Gal4 activation domain fusion (protein, UniProt Q12904-2 1-336) MLPAVAVSEPVVLRFMIFCRLLAKMANNDAVLKRLEQKGAEADQIIEYLKQQVSLLKEKAILQATLREEKKLRVENAKLKKEIEELKQELIQAEIQNGVKQIPFPSGTPLHANSMVSENVIQSTAVTTVSSGTKEQIKGGTGDEKKAKEKIEKKGEKKEKKQQSIAGSADSKPIDVSRLDLRIGCIITARKHPDADSLYVEEVDVGEIAPRTVVSGLVNHVPLEQMQNRMVILLCNLKPAKMRGVLSQAMVMCASSPEKIEILAPPNGSVPGDRITFDAFPGEPDKELNPKKKIWEQIQPDLHTNDECVATYKGVPFEVKGKGVCRAQTMSNSGIK
